Test results: a collection of fitness landscapes (doi:10.1126/science.1257360)
The list shows a part of the results.

B1: PhoQ; a variant is named by its letters at X, in order, P23837 (parent)
chain: MKKLLRLFFPLSLRVRFLLATAAVVLVLSLAYGMVALIGYSVSFDKTTFRLLRGESNLFYTLAKWENNKLHVELPENIDKQSPTMTLIYDENGQLLWAQRDVPWLMKMIQPDWLKSNGFHEIEADVNDTSLLLSGDHSIQQQLQEVREDDDDAEMTHSVAVNVYPATSRMPKLTIVVVDTIPVELKSSYMVWSWFIYVLSANLLLVIPLLWVAAWWSLRPIEALAKEVRELEEHNRELLNPATTRELTSLVRNLNRLLKSERERYDKYRTTLTDLTHSLKTPLXXLQXXLRSLRSEKMSVSDAEPVMLEQISRISQQIGYYLHRASMRGGTLLSRELHPVAPLLDNLTSALNKVYQRKGVNISLDISPEISFVGEQNDFVEVMGNVLDNACKYCLEFVEISARQTDEHLYIVVEDDGPGIPLSKREVIFDRGQRVDTLRPGQGVGLAVAREITEQYEGKIVAGESMLGGARMEVIFGRQHSAPKDE

Variants of: B1
Assay: enrichment ratio after two sorts for PhoP signalling (ratio (wild type AVST 3.29)); higher = more functional
Conditions: with PhoP (E. coli)

Row | Variant | enrichment ratio
1 | PSKH | ≤ 0.25
2 | HAWW | ≤ 0.25
3 | TYSN | 2.37
4 | VSMH | 1.13
5 | YDWE | ≤ 0.25
6 | ENGL | ≤ 0.25
7 | KECS | ≤ 0.25
8 | GGDV | ≤ 0.25
9 | FKYH | ≤ 0.25
10 | TQCG | 14.9
11 | INCA | ≤ 0.25
12 | FKGG | ≤ 0.25
13 | QSQP | ≤ 0.25
14 | KTWF | ≤ 0.25
15 | IDQG | ≤ 0.25
16 | SMDG | ≤ 0.25
17 | GDMH | ≤ 0.25
18 | RYVP | ≤ 0.25
19 | VVMP | 0.436
20 | EKCQ | ≤ 0.25
21 | EAAH | ≤ 0.25
22 | ATNV | ≤ 0.25
23 | FKEV | ≤ 0.25
24 | GYRK | ≤ 0.25

Row | Variant | enrichment ratio
25 | FICV | 1.13
26 | AKRD | ≤ 0.25
27 | SYVF | 0.277
28 | EDHW | ≤ 0.25
29 | DGFK | ≤ 0.25
30 | TMRN | ≤ 0.25
31 | DPTF | ≤ 0.25
32 | ILTA | ≤ 0.25
33 | MDLH | ≤ 0.25
34 | PSYF | ≤ 0.25
35 | DHLM | 0.798
36 | EGPM | ≤ 0.25
37 | PPNI | ≤ 0.25
38 | WNGK | ≤ 0.25
39 | VYMN | ≤ 0.25
40 | SSDK | ≤ 0.25
41 | DYAC | ≤ 0.25
42 | WNQF | ≤ 0.25
43 | GYCA | ≤ 0.25
44 | SWRV | ≤ 0.25
45 | FRLK | ≤ 0.25
46 | DLQQ | ≤ 0.25
47 | RKII | ≤ 0.25
48 | INAI | 0.944

Row | Variant | enrichment ratio
49 | PQES | ≤ 0.25
50 | SMFR | ≤ 0.25
51 | MHPM | ≤ 0.25
52 | NQSD | ≤ 0.25
53 | ANSM | 16.6
54 | HRFS | ≤ 0.25
55 | QEFH | ≤ 0.25
56 | FFLV | ≤ 0.25
57 | LYLQ | ≤ 0.25
58 | NQLW | ≤ 0.25
59 | HFPQ | ≤ 0.25
60 | RFSF | ≤ 0.25
61 | SAPG | ≤ 0.25
62 | RFGR | ≤ 0.25
63 | ELTS | ≤ 0.25
64 | MNHT | ≤ 0.25
65 | MRMH | ≤ 0.25
66 | ISLQ | 8.48
67 | PSAK | ≤ 0.25
68 | TSGK | ≤ 0.25
69 | IFLC | ≤ 0.25
70 | QYPG | ≤ 0.25
71 | GINL | ≤ 0.25
72 | FLVM | ≤ 0.25

Row | Variant | enrichment ratio
73 | YWYN | ≤ 0.25
74 | RTIW | ≤ 0.25
75 | PIKQ | ≤ 0.25
76 | VCVN | ≤ 0.25
77 | ALMD | ≤ 0.25
78 | WDKI | ≤ 0.25
79 | KPYC | ≤ 0.25
80 | SWNV | ≤ 0.25
81 | VEKW | ≤ 0.25
82 | YHMH | ≤ 0.25
83 | SWSG | ≤ 0.25
84 | NDCM | ≤ 0.25
85 | QDGN | ≤ 0.25
86 | FGLN | 7.1
87 | YHNL | ≤ 0.25
88 | NNFF | ≤ 0.25
89 | TLAT | 5.47
90 | QDIQ | ≤ 0.25
91 | LEMY | ≤ 0.25
92 | YYRW | ≤ 0.25
93 | VFYE | ≤ 0.25
94 | KHEP | ≤ 0.25
95 | WMDW | ≤ 0.25
96 | LHQH | ≤ 0.25

Row | Variant | enrichment ratio
97 | SWYP | ≤ 0.25
98 | HPKW | ≤ 0.25
99 | PHHL | ≤ 0.25
100 | VSCT | ≤ 0.25
101 | DCVK | ≤ 0.25
102 | RIGS | ≤ 0.25
103 | SPVN | ≤ 0.25
104 | KTPE | ≤ 0.25
105 | QITS | ≤ 0.25
106 | WSEW | ≤ 0.25
107 | MVSK | 0.645
108 | RHQC | ≤ 0.25
109 | WQHM | ≤ 0.25
110 | TNIL | ≤ 0.25
111 | NIEF | ≤ 0.25
112 | RWQP | ≤ 0.25
113 | VHHT | ≤ 0.25
114 | HDFK | ≤ 0.25
115 | IWNQ | ≤ 0.25
116 | NDFM | ≤ 0.25
117 | FFMW | ≤ 0.25
118 | GKFW | ≤ 0.25
119 | MLIC | ≤ 0.25
120 | ADDG | ≤ 0.25

Row | Variant | enrichment ratio
121 | KVYA | ≤ 0.25
122 | QGAA | ≤ 0.25
123 | TMSP | ≤ 0.25
124 | TNNE | ≤ 0.25
125 | DNTI | ≤ 0.25
126 | TQPF | ≤ 0.25
127 | DHMN | ≤ 0.25
128 | RDLR | ≤ 0.25
129 | HLNC | ≤ 0.25
130 | EFYC | ≤ 0.25
131 | FMRW | ≤ 0.25
132 | GSSF | 0.449
133 | ELRT | ≤ 0.25
134 | GRMG | ≤ 0.25
135 | RVIK | ≤ 0.25
136 | TMLN | ≤ 0.25
137 | QKHY | ≤ 0.25
138 | QVCT | 3.53
139 | PFFW | ≤ 0.25
140 | AWHV | ≤ 0.25
141 | LLTQ | ≤ 0.25
142 | DYVW | ≤ 0.25
143 | SLEK | ≤ 0.25
144 | KCFC | ≤ 0.25

Row | Variant | enrichment ratio
145 | QNWP | ≤ 0.25
146 | LHVC | ≤ 0.25
147 | PTTD | ≤ 0.25
148 | VAWP | ≤ 0.25
149 | HNKG | ≤ 0.25
150 | AMYF | 1.6
151 | PNTY | 0.61
152 | QPFG | ≤ 0.25
153 | YPKP | ≤ 0.25
154 | MTAV | 7.37
155 | FHVT | ≤ 0.25
156 | TNLY | ≤ 0.25
157 | EYTK | ≤ 0.25
158 | AAIL | 2.69
159 | FTPI | ≤ 0.25
160 | WHKF | ≤ 0.25
161 | NHYE | ≤ 0.25
162 | SDFF | ≤ 0.25
163 | YQYD | ≤ 0.25
164 | DEYM | ≤ 0.25
165 | NYRQ | ≤ 0.25
166 | LTND | ≤ 0.25
167 | KSLW | ≤ 0.25
168 | FMEI | ≤ 0.25

Row | Variant | enrichment ratio
169 | PIPD | ≤ 0.25
170 | NDCA | ≤ 0.25
171 | ASRQ | ≤ 0.25
172 | REFS | ≤ 0.25
173 | DQPP | ≤ 0.25
174 | WLPD | ≤ 0.25
175 | DSTS | ≤ 0.25
176 | RMIR | ≤ 0.25
177 | DNES | ≤ 0.25
178 | SYNN | ≤ 0.25
179 | YHGR | ≤ 0.25
180 | LFVY | ≤ 0.25
181 | QRTF | ≤ 0.25
182 | QAGS | 5.59
183 | WVYN | ≤ 0.25
184 | KVMT | ≤ 0.25
185 | LEYL | 0.302
186 | GYSW | ≤ 0.25
187 | PVWV | ≤ 0.25
188 | KPVF | ≤ 0.25
189 | FPKL | ≤ 0.25
190 | VYGG | ≤ 0.25
191 | REYP | ≤ 0.25
192 | KMGF | ≤ 0.25

Row | Variant | enrichment ratio
193 | IGDR | ≤ 0.25
194 | RRWE | ≤ 0.25
195 | HMLT | ≤ 0.25
196 | RPGG | ≤ 0.25
197 | YRDY | ≤ 0.25
198 | HHPK | ≤ 0.25
199 | AFIE | ≤ 0.25
200 | WKGW | ≤ 0.25
201 | PWTE | ≤ 0.25
202 | DFRK | ≤ 0.25
203 | VCSR | ≤ 0.25
204 | MIAT | 12.1
205 | QFAC | ≤ 0.25
206 | ESQF | ≤ 0.25
207 | WPIF | ≤ 0.25
208 | HFFT | ≤ 0.25
209 | DTYD | ≤ 0.25
210 | QKVC | ≤ 0.25
211 | VYGS | ≤ 0.25
212 | MRGR | ≤ 0.25
213 | HMYF | 0.849
214 | MCAK | 21.4
215 | HFII | ≤ 0.25
216 | GHMQ | ≤ 0.25

Row | Variant | enrichment ratio
217 | VTDR | ≤ 0.25
218 | GLFD | ≤ 0.25
219 | NCLI | 0.397
220 | WDAV | ≤ 0.25
221 | IRGG | ≤ 0.25
222 | PTAP | ≤ 0.25
223 | PEVA | ≤ 0.25
224 | WMAR | ≤ 0.25
225 | DETD | ≤ 0.25
226 | VIMI | ≤ 0.25
227 | MAVY | ≤ 0.25
228 | VEAP | ≤ 0.25
229 | HYMA | ≤ 0.25
230 | TTGE | ≤ 0.25
231 | WAYA | ≤ 0.25
232 | YFCK | ≤ 0.25
233 | FGAW | ≤ 0.25
234 | TMEN | ≤ 0.25
235 | HLRQ | ≤ 0.25
236 | WMHQ | ≤ 0.25
237 | THIN | ≤ 0.25
238 | GEYE | ≤ 0.25
239 | RNED | ≤ 0.25
240 | GTSN | ≤ 0.25

Row | Variant | enrichment ratio
241 | QLII | ≤ 0.25
242 | TNQD | ≤ 0.25
243 | RFIW | ≤ 0.25
244 | NDQR | ≤ 0.25
245 | NWCV | ≤ 0.25
246 | PRMP | ≤ 0.25
247 | AYHV | ≤ 0.25
248 | YQCE | ≤ 0.25
249 | VFGA | ≤ 0.25
250 | APDR | ≤ 0.25
251 | TELS | 12.5
252 | KDIV | ≤ 0.25
253 | VWGC | ≤ 0.25
254 | DAFD | ≤ 0.25
255 | IAFN | ≤ 0.25
256 | DSHS | ≤ 0.25
257 | VESY | ≤ 0.25
258 | NRAQ | ≤ 0.25
259 | MIYD | 9.39
260 | WMNL | ≤ 0.25
261 | YRFT | ≤ 0.25
262 | FEKC | ≤ 0.25
263 | NDPC | ≤ 0.25
264 | SSAS | 9.58

Row | Variant | enrichment ratio
265 | PSGE | 0.442
266 | GFQA | ≤ 0.25
267 | SMTS | 7.7
268 | SMGK | ≤ 0.25
269 | YAGQ | ≤ 0.25
270 | MEPD | ≤ 0.25
271 | RCPM | ≤ 0.25
272 | YSLR | ≤ 0.25
273 | GFMM | ≤ 0.25
274 | ESST | ≤ 0.25
275 | FICP | ≤ 0.25
276 | PYYK | ≤ 0.25
277 | PPES | ≤ 0.25
278 | VFEA | ≤ 0.25
279 | MLNA | ≤ 0.25
280 | DTAF | ≤ 0.25
281 | KADL | ≤ 0.25
282 | GICQ | 10.3
283 | MGID | ≤ 0.25
284 | VEAV | 5.89
285 | TCVA | ≤ 0.25
286 | DDLH | ≤ 0.25
287 | VSCH | 2.85
288 | FKWT | ≤ 0.25

Row | Variant | enrichment ratio
289 | AMNY | ≤ 0.25
290 | MENR | ≤ 0.25
291 | SHLD | ≤ 0.25
292 | SVGT | ≤ 0.25
293 | SASR | ≤ 0.25
294 | FFTI | ≤ 0.25
295 | TEPF | ≤ 0.25
296 | FHIT | ≤ 0.25
297 | NENK | ≤ 0.25
298 | SWEV | ≤ 0.25
299 | SDTS | ≤ 0.25
300 | IHKT | ≤ 0.25
301 | MMWV | ≤ 0.25
302 | GHPK | ≤ 0.25
303 | YPNR | ≤ 0.25
304 | VQQY | ≤ 0.25
305 | PWQT | ≤ 0.25
306 | NRTD | ≤ 0.25
